# Assay results taken from PubChem BioAssay AID1345082 (National Center for Advancing Translational Sciences (NCATS), 2018).
# Out of some 94,000 compounds screened, about 4,000 (4.3%) were called active. This list was built around the results that the source calls inconclusive (neither active nor inactive); the mix of calls is not that of the screen. The call rests on the fitted dose curve; in most records, active means well fitted inhibition curve with a large enough effect; inconclusive means small, poorly fitted or top-dose-only effect; inactive means no such curve, though single readings can be large or run the other way. A potency beside an inconclusive call is a rough fit, not a confirmed value.
# Assay: Cytotoxic Profiling in NIH 3T3 Cell Line of Diverse Libraries Using Quantitative High-Throughput Screening; further: nearly all actives have a fitted effect of over 55% in size
# Conditions: NIH 3T3 viability, CellTiter-Glo ATP luminescence, 48-72 h; series mostly up to 96.7 µM
# Procedure, shortened: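 Cells were seeded at 400 per well, treated with pin-transferred compound, and kept 48 or 72 hr at 37 °C before CellTiter-Glo addition and luminescence imaging of cellular ATP.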
# Potency means the concentration at half of the fitted maximal effect; tags describe the fitted curve by direction and shape.
row,Structure (SMILES),Potency
1,O=C(NCC1Cn2cccc2C(=O)N1Cc1ccccc1)c1cn[nH]c1-c1ccccc1 (stereo not given),inactive
2,O=C(NCc1cccnc1)c1nc(-c2ccc(Cl)nc2)c2cnccn12,inactive
3,CN1CCCN(C(=O)c2ccc(Cl)cc2)c2ccccc21,"inconclusive: 44.7 µM [inhibitor, partial curve, poor fit]"
4,Cc1nc(-c2cn(C3CCCN(C(=O)c4cccc(Br)c4)C3)nn2)no1 (stereo not given),"inconclusive: 70.8 µM [inhibitor, single point]"
5,Cc1c(Cl)cccc1NC(=O)Cn1ccn2nc(-c3ccc(F)cc3)c(CO)c2c1=O,inactive
6,CCOc1ccccc1CN(C)C1CCc2nn(CC3CC3)c(=O)n2CC1 (stereo not given),inactive
7,COc1ccc(-c2cc(-c3cccc(CO)c3)cn3cncc23)cn1,active: 39.8 µM
8,COc1ccccc1CC(=O)Nc1ccc2c(N3CCCCC3)ncnc2c1,"inconclusive: 39.8 µM [inhibitor, partial curve]"
9,CC(C)CN(Cc1ccncc1)C1CN(C(=O)c2ccco2)C1,"inconclusive: 50.1 µM [inhibitor, partial curve, poor fit]"
10,Cc1c(-c2ccccc2F)[nH]c2ccc(CNC(=O)C3C=CCN3)cc12 (stereo not given),"inconclusive: 79.4 µM [inhibitor, partial curve, poor fit]"
11,O=C(NCc1ccccc1Cl)c1cc2n(n1)CC(c1ccc(Cl)cc1)OC2 (stereo not given),"inconclusive: 44.7 µM [inhibitor, partial curve, poor fit]"
12,CN(Cc1ccc2nsnc2c1)c1cc(C2CC(O)C2)ncn1 (stereo not given),"inconclusive: 44.7 µM [inhibitor, partial curve]"
13,O=C(c1ccsc1)N1CCC2(CC1)NC(=O)N(Cc1cccc(Cl)c1)C2=O,active: 28.2 µM
14,Cc1ccc(-c2noc([C@@H]3Cc4nc[nH]c4CN3C(=O)NC3CCCCC3)n2)cc1,"inconclusive: 112 µM [inhibitor, single point]"
15,CN(C)CCNC(=O)c1nc2nc(-c3ccccc3)c(-c3cccc(CO)c3)cc2n1C,"inconclusive: 100 µM [inhibitor, partial curve, poor fit]"
16,Cc1ccccc1C(=O)NC1CCN(c2ccc3nnc(C4CC4)n3n2)C1 (stereo not given),inactive
17,N#Cc1cccc(-c2c(C(=O)N3CCOCC3)nc3sccn23)c1,inactive
18,COC(=O)[C@@H]1Cc2c([nH]c3ccccc23)[C@H]2C[C@H](N3CCCCC3)C[C@@H](c3ccccc3F)N21,active: 28.2 µM
19,CC(C)c1ccc(N2CC(C(=O)NCc3nc(C(C)C)no3)CC2=O)cc1 (stereo not given),inactive
20,O=C([C@H]1C[C@H](Oc2ccccc2)CN1C(=O)Nc1ccccc1)N1CCOCC1,inactive
